Experimental data reported in a compilation of properties of binary mixtures (doi:10.1016/j.molliq.2022.120022).
Some of these densities may be calculated back from excess volumes.

Test: xn = mol fraction of the nth substance listed
Details: 100 kPa

O + C[N+](C)(C)CCO.NCC(=O)[O-]
Details	mass density [kg/m3]
323.15 K, x2 = 0	987.8

C[N+](C)(C)CCO.NCC(=O)[O-] + O
mass density [kg/m3]
Details	x1 = 0.1	x1 = 0.2004	x1 = 0.3	x1 = 0.3996	x1 = 0.5004	x1 = 0.6004	x1 = 0.6966	x1 = 0.8014	x1 = 0.8996	x1 = 1
298.15 K	1081.8	1113.7	1128.1	1135.5	1139.8	1142.3	1143.8	1144.9	1145.7	–
303.15 K	1079.4	1111	1125.4	1132.7	1136.9	1139.5	–	1142.2	1142.9	1143.4
308.15 K	–	1108.3	1122.6	–	1134.1	1136.7	1138.2	1139.3	1140.1	1140.6
313.15 K	1074.4	1105.6	1119.8	–	–	1133.8	1135.3	1136.5	1137.2	1137.8
318.15 K	–	1102.8	–	–	–	1131	1132.5	1133.7	1134.4	–
323.15 K	1069.3	1100.1	1114.2	1121.5	1125.6	1128.2	1129.7	1130.9	1131.6	1132.2
